Experimental data published in patent US20260193372A1 (Hoffmann-La Roche, published 2026).
Changes are numbered by the printed parent chain. Numbers in names are those of the source. Blank lines part the entries; values can stand above or below the binder they belong to.

Key:
[1] = molecular target: T1, plasma purified C3b (Complement Technology), biotinylated at cysteine 1010 with Maleimide-PEG3-biotin (human, UniProt P01024 23-667; P01024 fragment, limits assumed, cysteine 1010 biotinylated (Maleimide-PEG3-biotin)); assay: BLI, biotinylated C3b on streptavidin sensor, FB with factor D, Ni2+ buffer, dissociation of C3bBb, single exponential fit
T1 construct: Loaded on streptavidin BLI sensors; also called Complement C3 beta chain (C3b); C3 fragment
T1 sequence (P01024 23-667 limits assumed, chain 1 of 2): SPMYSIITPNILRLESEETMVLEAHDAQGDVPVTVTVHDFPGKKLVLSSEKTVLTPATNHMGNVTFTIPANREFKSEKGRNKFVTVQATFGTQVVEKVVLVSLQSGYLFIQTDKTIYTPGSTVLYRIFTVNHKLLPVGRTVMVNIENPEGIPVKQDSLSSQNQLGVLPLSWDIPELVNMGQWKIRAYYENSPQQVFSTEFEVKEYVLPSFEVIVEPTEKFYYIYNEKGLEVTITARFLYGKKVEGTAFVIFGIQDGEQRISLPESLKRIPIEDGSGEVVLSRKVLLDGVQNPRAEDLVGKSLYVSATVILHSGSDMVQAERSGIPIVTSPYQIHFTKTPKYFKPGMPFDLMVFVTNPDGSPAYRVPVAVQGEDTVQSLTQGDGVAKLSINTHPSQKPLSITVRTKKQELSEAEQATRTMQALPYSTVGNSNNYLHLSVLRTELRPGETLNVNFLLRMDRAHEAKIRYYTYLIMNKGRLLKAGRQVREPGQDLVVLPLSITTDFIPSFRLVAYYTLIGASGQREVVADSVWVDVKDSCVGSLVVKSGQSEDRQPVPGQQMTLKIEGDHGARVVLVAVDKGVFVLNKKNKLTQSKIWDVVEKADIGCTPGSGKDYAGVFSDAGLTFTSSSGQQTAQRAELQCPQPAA
T1 sequence (P01024 749-1663 limits assumed, chain 2 of 2): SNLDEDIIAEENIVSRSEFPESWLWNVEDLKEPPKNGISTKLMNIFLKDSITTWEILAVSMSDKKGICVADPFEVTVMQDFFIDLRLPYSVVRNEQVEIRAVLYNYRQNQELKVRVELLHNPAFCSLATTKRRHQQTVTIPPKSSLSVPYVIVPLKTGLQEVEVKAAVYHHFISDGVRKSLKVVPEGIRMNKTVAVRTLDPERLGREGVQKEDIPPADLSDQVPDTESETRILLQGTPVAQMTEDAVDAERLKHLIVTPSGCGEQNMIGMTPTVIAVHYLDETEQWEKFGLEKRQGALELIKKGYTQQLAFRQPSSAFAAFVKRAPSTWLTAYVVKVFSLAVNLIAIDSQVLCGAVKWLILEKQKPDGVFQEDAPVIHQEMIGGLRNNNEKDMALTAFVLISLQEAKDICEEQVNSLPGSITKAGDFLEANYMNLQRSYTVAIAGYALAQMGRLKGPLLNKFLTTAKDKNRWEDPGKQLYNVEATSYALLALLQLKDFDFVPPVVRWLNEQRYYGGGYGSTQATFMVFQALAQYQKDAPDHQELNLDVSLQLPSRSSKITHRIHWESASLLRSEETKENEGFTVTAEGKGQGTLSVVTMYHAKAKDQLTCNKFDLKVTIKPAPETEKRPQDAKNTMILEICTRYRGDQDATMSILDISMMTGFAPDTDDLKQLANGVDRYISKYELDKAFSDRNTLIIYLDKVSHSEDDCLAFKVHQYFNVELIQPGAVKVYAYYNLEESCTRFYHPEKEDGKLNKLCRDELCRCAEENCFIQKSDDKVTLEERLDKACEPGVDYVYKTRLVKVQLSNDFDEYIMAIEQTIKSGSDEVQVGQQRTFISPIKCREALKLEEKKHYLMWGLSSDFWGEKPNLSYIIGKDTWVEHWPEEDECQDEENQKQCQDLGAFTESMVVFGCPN
From the text: Correction of the BLI trace was identical to the experiment in presence of magnesium. Different from the Mg2+ containing C3bBb complexes, only one species was detected during dissociation and a single exponential decay (A*exp(((−1)*B)*x)) was used for analysis.

[2] = molecular target: T1, plasma purified C3b (Complement …); assay: BLI, biotinylated C3b on streptavidin sensor, FB with factor D, Mg2+ buffer, dissociation of C3bBb, double exponential fit
Method: To analyze stability of the C3bBb complexes having the different Bb subunits, C3b cysteine 1010 was biotinylated by incubating plasma purified C3b (Complement Technology) overnight at 4° C. in presence of 5 molar excess Maleimide-PEG3-biotin (Thermo Fisher Scientific) followed by purification on a Zeba spin column 40K (Thermo Fisher Scientific). This material was used to load streptavidin functionalized BLI sensors (SA sensors; Fortebio) in an Octet RED 384 device (Fortebio) at high density (5 nm BLI signal). C3bBb was assembled by exposing the C3b loaded sensors to different recombinant factor B variants (i.e. wild type SEQ ID NO: 1; D279G variant of SEQ ID NO: 2; D279G K350N M458I triple variant of SEQ ID NO: 3) in presence of 54 nM plasma purified factor D (Complement Technology) in HBS-T (Mg) buffer (150 mM NaCl, 10 mM HEPES, 1 mM MgCl2, 0.005% Tween20. pH 7.4) at 22° C. […]
After subtraction of the signal recorded from parallel reference sensors omitting the C3b loading step and subtraction of a control sensor omitting factor B and factor D, data of the dissociation phase was fitted to the double exponential ((A*exp(((−1)*B)*x)))+(C*exp(((−1)*D)*x)) using XLfit (IDBS software), allowing for heterogeneity in the assembled convertase population. […]

prevalence of main species [1]: 100%
t ½ [1]: 0.483 h
B1: recombinant human Factor B wt (FB) with His Tag and Precission site (enzyme)
chain: KIVLDPSGSMNIYLVLDGSDSIGASNFTGAKKCLVNLIEKVASYGVKPRYGLVTYATYPKIWVKVSEADSSNADWVTKQLNEINYEDHKLKSGTNTKKALQAVYSMMSWPDDVPPEGWNRTRHVIILMTDGLHNMGGDPITVIDEIRDLLYIGKDRKNPREDYLDVYVFGVGPLVNQVNINALASKKDNEQHVFKVKDMENLEDVFYQMIDESQSLSLCGMVWEHRKGTDYHKQPWQAKISVIRPSKGHESCMGAVVSEYFVLTAAHCFTVDDKEHSIKVSVGGEKRDLEIEVVLFHPNYNINGKKEAGIPEFYDYDVALIKLKNKLKYGQTIRPICLPCTEGTTRALRLPPTTTCQQQKEELLPAQDIKALFVSEEEKKLTRKEVYIKNGDKKGSCERDAQYAPGYDKVKDISEVVTPRFLCTGGVSPYADPNTCRGDSGGPLIVHKRSRFIQVGVISWGVVDVCKNQKRQKQVPAHARDFHINLFQVLPWLKEKLQDEDLGFL
notes: also called wild type Bb

prevalence of main species [2]: 97%
t ½ [2]: 1.05 h
prevalence of main species [1]: 100%
t ½ [1]: 3.3 h
B2: recombinant human FB with D279G with His Tag and Precission site (enzyme)
chain: B1 chain with D20G
notes: Cleaved by factor D in the assay; the Bb subunit stays on C3b; also called FB (D279G); single mutated Bb D279G
